According to PubChem BioAssay AID485297 (National Center for Advancing Translational Sciences (NCATS), 2010):
Out of some 320,000 compounds screened, about 9,100 (2.8%) were called active. Inconclusive results, whose numbers are uncertain, are shown with a selection of clear calls. The call rests on the fitted dose curve; in most records, active means well fitted activation curve with a large enough effect; inconclusive means small, poorly fitted or top-dose-only effect; inactive means no such curve, though single readings can be large or run the other way. Potencies of inconclusive entries are left out as doubtful fits.

assay: qHTS Assay for Rab9 Promoter Activators; conditions: Huh7 Rab9 promoter-luciferase reporter, luminescence, 24 h; series mostly up to 9.22 µM; activation, negative = inhibition: at the top concentration; further: nearly all actives have a fitted effect of over 60% in size; on activation, negative = inhibition: % of control where 0% means no effect
How it was run: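 Stable Rab9-luc Huh7, 1500 cells/well, 2 h settle; cmpd in DMSO, 24 h, 37 °C/5% CO2; luciferase reagent 10 min RT; luminescence.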
Potency means the concentration at half of the fitted maximal effect; tags describe the fitted curve by direction and shape.

Structure (SMILES) | activation, negative = inhibition | Potency
O=C(COC(=O)C1CCCCC1)Nc1ccc(N2CCCCC2)cc1 | inactive: 14% | 
CCc1ccc(C(=O)Nc2nnn(CC)n2)cc1 |  | active: 0.501 µM
Cc1cc(/C=C(/C#N)c2cccc(F)c2)c(C)n1-c1cccnc1 |  | inconclusive [activator, single point]
COc1ccc(-c2cc(C(=O)O)c(C)o2)cc1OC |  | active: 0.316 µM
NS(=O)(=O)c1ccc(NC(=S)NC(=O)c2ccc3c(c2)OCO3)cc1 |  | inconclusive [activator, partial curve]
COc1cc(C)c(NC(c2ccccc2)c2ccccc2)cc1OC |  | inconclusive [activator, single point]
COc1cc(NC(=O)CCC(=O)c2cccs2)cc(OC)c1 | inactive: 2.04% | 
Cc1ccc(S(=O)(=O)N(C)C)cc1NC(=O)CCc1c[nH]c2ccccc12 |  | inconclusive [activator, single point]
Cc1ccc(C(=O)Nc2ccc3c(c2)CCC3)o1 |  | active: 2.82 µM
CCc1ccc(CN(C)C(=O)c2cc(S(=O)(=O)N3CCN(CC)CC3)ccc2Cl)cc1 | inactive: -7.63% | 
CN(C)C(=S)SCCn1c(N)nc(N(C)C)nc1=O | inactive: 0.317% | 
Cc1ccc(NC(=O)c2cncc(Br)c2)cc1S(=O)(=O)N(C)C |  | inconclusive [activator, single point]
O=C(Nc1ccccc1SCC1CSc2nc3ccccc3c(=O)n21)c1cccc(Cl)c1 (configuration not stated) | inactive: -2% | 
CN(C)c1ccc(/C=C2\CCCCC2=O)cc1 |  | active: 3.16 µM
Cc1ccsc1C(=O)Nc1nccs1 |  | inconclusive [activator, single point]
O=c1c2ccccc2nc(/C=C/c2c[nH]c3ccccc23)n1CCO |  | inconclusive [activator, single point]
Cc1ccc(C(=O)Nc2ccc(CN3CCS(=O)(=O)CC3)cc2)cc1C |  | inconclusive [activator, partial curve]
O=C(COc1ccccc1Cl)NC(=O)NC1CCCC1 |  | inconclusive [activator, single point]
COC(=O)c1ccc(-c2sc3nc(N4CCOCC4)c4c(c3c2N)CC(C)(C)OC4)o1 | inactive: -0.392% | 
Cc1cc(NC(=O)c2cccs2)ncc1NC(=O)c1cccc(F)c1 |  | active: 3.16 µM
Cc1ccc(NC(=O)c2snc3ccc(Cl)cc23)cc1C |  | inconclusive [activator, single point]
CCn1c(CCCOc2ccc(Cl)cc2Cl)nnc1SCC(=O)Nc1cccc(F)c1 | inactive: -4.57% | 
Cc1ccc2nc(-c3cc(N)cc(N)c3)oc2c1 |  | inconclusive [activator, single point]
COc1ccc2c(=O)c(-c3ccc(OC)c(OC)c3)coc2c1 |  | inconclusive [activator, partial curve]
CN(C)S(=O)(=O)c1ccc(C(=O)OCC(=O)c2csc(N3CCCCC3)n2)cc1 | inactive: 19.2% | 
Cc1nn(CC(=O)Nc2ccc3c(c2)nc(CN2CCCC2)n3C)c(=O)c2ccccc12 |  | inconclusive [activator, single point]

Structure (SMILES) | activation, negative = inhibition | Potency
CCCOc1ccc(/C=C/c2c([N+](=O)[O-])c(=O)n(C)c(=O)n2C)cc1 | inactive: -0.0175% | 
O=C(COc1ccc(F)cc1)N1CCC(c2ccccc2)C1 (configuration not stated) |  | inconclusive [activator, single point]
COc1cccc(/C=C2\CCc3ccccc3C2=O)c1 |  | inconclusive [activator, partial curve]
Cc1oc2cc3oc(=O)c4c(c3cc2c1C)CCC4 |  | inconclusive [activator, partial curve]
CCOC(=O)c1c(C)oc2c1c(C=NCc1ccccn1)c(O)c1ccccc12 | inactive: -5.54% | 
N#CC(Cc1ccc(OC(F)F)cc1)c1nc2ccccc2[nH]1 (configuration not stated) |  | inconclusive [activator, partial curve]
COc1cc2c(cc1OC)CN(CC(=O)Nc1cccc(C(F)(F)F)c1)CC2 | inactive: -0.114% | 
C/C(=N\NC(=O)c1cc(-c2ccc(C)s2)nc2ccccc12)c1cccnc1 |  | inconclusive [activator, single point]
COC(=O)c1ccc(NC(=O)CNc2ccccc2)cc1 |  | inconclusive [activator, single point]
COC(=O)C1=C(CS(=O)(=O)c2ccccc2)NC(=O)NC1c1ccc(O)cc1 (configuration not stated) | inactive: -5.75% | 
COC(=O)c1ccc(/C=C/C(=O)c2cccc(OC)c2)cc1 |  | inconclusive [activator, single point]
Cc1ccc(/C=N\Nc2cn[nH]c(=O)c2Cl)cc1 |  | inconclusive [activator, partial curve]
O=C(/C=C\c1ccc(-c2ccccc2)o1)c1ccccc1 |  | inconclusive [activator, single point]
COc1ccc(NC(=O)/C(C#N)=C/c2ccc[nH]2)c(OC)c1 |  | inconclusive [activator, full curve, poor fit]
Cc1ccc(OC(=O)c2cc(C)nn2C(C)(C)C)cc1 | inactive: -2.42% | 
Cc1cccn2c(=O)c3cc(C(=O)NCc4cccnc4)c(=N)n(CC4CCCO4)c3nc12 (configuration not stated) |  | inconclusive [activator, single point]
CC1(C)NC(=O)N(CC(=O)OCC(=O)Nc2cccc(S(N)(=O)=O)c2)C1=O | inactive: -1.4% | 
O=c1[nH]c2cc3c(cc2cc1CN(Cc1cccnc1)C(=S)NCc1ccco1)OCCO3 | inactive: -2.61% | 
O=C(O)c1ccc(N/N=C/c2ccnc3ccccc23)cc1 |  | inconclusive [activator, full curve]
Cc1ccc(S(=O)(=O)N(C)CC(=O)NCC(c2ccc(F)cc2)N2CCOCC2)cc1 (configuration not stated) | inactive: 0.398% | 
O=C(O)c1cc(N/N=C/c2cccs2)ccc1Cl |  | inconclusive [activator, full curve, poor fit]
CCC(=O)Nc1cccc(C(=O)OCC(=O)c2ccccc2Cl)c1 |  | inconclusive [activator, partial curve]
COc1ccc(-c2cn(-c3ccc(Cl)cc3)c3[n+]2CCCCC3)cc1 | inactive: -16.7% | 
COc1ccc2nc(NC(=O)CSc3nnc(-c4ccoc4C)n3C)sc2c1 |  | active: 3.55 µM
Brc1ccc(-c2csc(/N=C/N3CCOCC3)n2)cc1 |  | inconclusive [activator, single point]
O=C(NC1=NCCS1)c1sc2cc(F)ccc2c1Cl |  | active: 2.24 µM

Structure (SMILES) | activation, negative = inhibition | Potency
O=C(O)C(=O)/C(=C\c1ccc([N+](=O)[O-])cc1)c1ccc2ccccc2n1 |  | inconclusive [activator, partial curve]
CN(C)c1ccc(/C=C/c2nc3ccccc3s2)cc1 |  | inconclusive [activator, full curve]
CSc1ccccc1NC(=O)Nc1ccc(Cl)cc1 |  | inconclusive [activator, single point]
Cc1ccc2c(NC(=O)c3ccco3)cccc2n1 | inactive: -0.582% | 
CCC(C)N1CC(O)=C(c2nc3ccccc3[nH]2)C1=N (configuration not stated) |  | inconclusive [activator, partial curve]
CCCN1CCN(C(=O)c2cc3c(s2)-c2ccccc2OC3)CC1 |  | active: 3.98 µM
COc1ccc(NS(=O)(=O)c2cc(NC(=O)C3CC3)ccc2N2CCOCC2)cc1 |  | inconclusive [activator, single point]
COc1ccc2c(c1OC)C(=O)N(c1ccc(F)cc1)C2 |  | active: 1.26 µM
O=C(N/N=C/c1cccc(O)c1)c1ccc(COc2ccc3c(c2)CCC3)o1 |  | inconclusive [activator, partial curve]
CCOC(=O)c1cccc(NC(=O)c2cnc3ccccc3n2)c1 |  | active: 2 µM
COC(=O)c1sccc1NC(=S)N1C(C)CCCC1C (configuration not stated) | inactive: 1.49% | 
CC(C)CN(c1ccccc1)S(=O)(=O)c1nnc(NC(=O)C(C)C)s1 | inactive: -4.22% | 
Nc1cc(-c2cccc(Br)c2)nn1Cc1ccccc1 | inactive: 4.51% | 
Cc1ccc(CN=c2c([N+](=O)[O-])nn(-c3ccc4c(c3)OCCO4)n2O)cc1 |  | inconclusive [activator, partial curve]
CC(C)N(C(=O)COC(=O)c1cccc(S(=O)(=O)N2CC3(C)CC2CC(C)(C)C3)c1)C(C)C (configuration not stated) | inactive: 3.03% | 
Cc1nc2n[nH]c(N)c2c2c1CCCC2 | inactive: -2.06% | 
CCOC(=O)CN1C=C(c2ccc3ccccc3n2)C(C[N+](=O)[O-])c2ccccc21 (configuration not stated) |  | inconclusive [activator, single point]
COc1ccc(C(=O)Cc2nnc(C)s2)cc1 |  | inconclusive [activator, single point]
O=C(Cc1ccc(F)cc1)Nc1nnc(-c2ccc(F)cc2)o1 | inactive: -7.14% | 
CCCc1cc(C(=O)Nc2cccc(C(C)=O)c2)no1 |  | inconclusive [activator, single point]
O=C(Nc1ccc(Cl)cc1)c1ccco1 |  | inconclusive [activator, single point]
CC(C)Oc1ccc(C(=O)NCc2cccs2)cc1 |  | inconclusive [activator, partial curve]
CCc1c(C)sc(NC(=O)c2cc(C)on2)c1C#N |  | inconclusive [activator, partial curve]
O=C(NCCc1c[nH]c2ccccc12)/C(=C/c1ccco1)NC(=O)c1ccco1 |  | inconclusive [activator, single point]
CCC(Sc1nc2cc(OC)c(OC)cc2c(=O)n1CCc1ccc(OC)c(OC)c1)C(=O)NCCOC (configuration not stated) | inactive: -0.13% | 
